Results taken from the supplement of paper PMC4996465.

Tests used:
[1] = tested on: KB3-1; experiment: viability (% of DMSO control); higher = more viable cells
Protocol: (§1)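 Eleven-dose screen of the NCATS MIPE 3 library on cells without co-treatment; CellTiter-Glo after 48 h, as % of DMSO wells.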

[2] = tested on: Nalm-6; experiment: as above
Protocol: as §1

[3] = tested on: KB3-1; experiment: log AC50 of viability decrease (48 h) (log10 M); higher = less potent
Protocol: (§2)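 Eleven-dose screen of the NCATS MIPE 3 library on cells without co-treatment; CellTiter-Glo after 48 h. AC50 from the curve fit; only inhibitory curves of the better fit classes are listed.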

[4] = tested on: Nalm-6; experiment: as above
Protocol: as §2

Row | SMILES | viability ([1]; 0.00078 µM) [%] | viability ([1]; 0.00234 µM) [%] | viability ([1]; 0.00702 µM) [%] | viability ([1]; 0.0211 µM) [%] | viability ([1]; 0.0632 µM) [%] | viability ([1]; 0.19 µM) [%] | viability ([1]; 0.569 µM) [%] | viability ([1]; 1.71 µM) [%] | viability ([1]; 5.12 µM) [%] | viability ([1]; 15.4 µM) [%] | viability ([1]; 46.1 µM) [%] | viability ([2]; run: 1, 0.00078 µM) [%] | viability ([2]; run: 1, 0.00234 µM) [%] | viability ([2]; run: 1, 0.00702 µM) [%] | viability ([2]; run: 1, 0.0211 µM) [%] | viability ([2]; run: 1, 0.0632 µM) [%] | viability ([2]; run: 1, 0.19 µM) [%] | viability ([2]; run: 1, 0.569 µM) [%] | viability ([2]; run: 1, 1.71 µM) [%] | viability ([2]; run: 1, 5.12 µM) [%] | viability ([2]; run: 1, 15.4 µM) [%] | viability ([2]; run: 1, 46.1 µM) [%] | viability ([2]; run: 2, 0.00078 µM) [%] | viability ([2]; run: 2, 0.00234 µM) [%] | viability ([2]; run: 2, 0.00702 µM) [%] | viability ([2]; run: 2, 0.0211 µM) [%] | viability ([2]; run: 2, 0.0632 µM) [%] | viability ([2]; run: 2, 0.19 µM) [%] | viability ([2]; run: 2, 0.569 µM) [%] | viability ([2]; run: 2, 1.71 µM) [%] | viability ([2]; run: 2, 5.12 µM) [%] | viability ([2]; run: 2, 15.4 µM) [%] | viability ([2]; run: 2, 46.1 µM) [%] | log AC50 of viability decrease [3] | log AC50 of viability decrease ([4]; run: 1) | log AC50 of viability decrease ([4]; run: 2)
1 | CC(C)C[C@H](NC(=O)CNC(=O)c1cc(Cl)ccc1Cl)B(O)O [Ixazomib] | 103 | 103 | 105 | 96.6 | 70 | 43.1 | 20.2 | 12.5 | 7.63 | 7.31 | 4.4 | 86.1 | 91.1 | 92 | 16.9 | 5.8 | 5.99 | 6.73 | 7.05 | 6.86 | 6.79 | 5.04 | 109 | 117 | 119 | 48 | 11.8 | 5.18 | 5.42 | 5.31 | 5.13 | 5.01 | 4.03 | -6.93 | -7.83 | -7.73
2 | CCOc1ccc(Nc2nc(-c3c(C)nc4ccccn34)cs2)cc1 [JK 184] | 110 | 99.8 | 54.9 | 29.3 | 24.8 | 19.3 | 19 | 18.9 | 16.6 | 18.9 | 9.9 | 108 | 113 | 90.3 | 23.4 | 26.7 | 13.2 | 12.6 | 11.4 | 12.4 | 10.1 | 6.94 | 105 | 97.4 | 83.5 | 14.9 | 21.5 | 7.87 | 8.44 | 8 | 8.13 | 8.87 | 5.42 | -8.23 | -7.98 | -7.98
3 | COc1ccc(S(=O)(=O)N(CCO)c2ccccc2CN(C)C(=O)/C=C/c2ccc(Cl)cc2)cc1 [KN-93] | 91.1 | 87.9 | 94.5 | 90.2 | 93.7 | 94.2 | 94.3 | 88.4 | 77.7 | 77.1 | 37.7 | 96.3 | 102 | 99.3 | 113 | 111 | 104 | 98.3 | 81.3 | 60 | 60.1 | 0.955 | 104 | 104 | 97.7 | 99.7 | 107 | 107 | 95.4 | 83.6 | 62 | 58.9 | 1.13 | -4.68 | -4.73 | -4.78
4 | C[C@@]12O[C@@H](C[C@]1(O)CO)n1c3ccccc3c3c4c(c5c6ccccc6n2c5c31)CNC4=O [Lestaurtinib] | 104 | 96.4 | 83.7 | 64.3 | 50.6 | 49.7 | 50.4 | 48.8 | 46.1 | 47.8 | 1.11 | 107 | 115 | 86.1 | 77.1 | 56.8 | 51.1 | 41.1 | 38 | 17.6 | 4.74 | 1.03 | 100 | 102 | 90.9 | 80.2 | 62.1 | 53.1 | 41.1 | 18.6 | 7.47 | 2.19 | 0.673 | -7.53 | -6.93 | -6.68
5 | CC1(C)Cc2c(-c3ccccc3)c(-c3ccc(Cl)cc3)c(CC(=O)O)n2C1 [Licofelone] | 95.7 | 95.4 | 103 | 104 | 100 | 101 | 105 | 99.2 | 94.9 | 70.6 | 40.1 | 88.5 | 100 | 103 | 107 | 104 | 116 | 120 | 110 | 111 | 68.7 | 35.6 | 94.2 | 97.2 | 104 | 107 | 93.6 | 109 | 105 | 102 | 103 | 73.9 | 10.3 | -4.78 | -4.83 | -4.73
6 | Cc1ccc(F)c(NC(=O)Nc2ccc(-c3cccc4[nH]nc(N)c34)cc2)c1 [Linifanib] | 103 | 105 | 104 | 99.3 | 105 | 104 | 111 | 101 | 71.2 | 42.4 | 5.2 | 97.5 | 106 | 109 | 113 | 100 | 109 | 106 | 108 | 56.4 | 23.4 | 3.28 | 103 | 108 | 101 | 110 | 107 | 101 | 100 | 92.5 | 51.3 | 13.5 | 2.46 | -4.88 | -5.28 | -5.28
7 | C[C@]1(O)CC(C1)C2=NC(=C3[N]2C=CN=C3N)C4=CC5=C(C=C4)C=CC(=N5)C6=CC=CC=C6 (stereo unspecified) [Linsitinib] | 99.1 | 102 | 101 | 101 | 94.3 | 87.9 | 92.3 | 83.9 | 78.6 | 78.3 | 48.3 | 110 | 109 | 117 | 118 | 103 | 114 | 114 | 113 | 94.7 | 95.9 | 5.37 | 109 | 105 | 104 | 105 | 106 | 99.2 | 106 | 100 | 91.9 | 81.1 | 2.64 | -4.73 | -4.63 | -4.53
8 | CCCCCCCc1ccc(CCc2cccc(O)c2C(=O)O)cc1 [MG-149] | 107 | 106 | 108 | 108 | 113 | 111 | 106 | 106 | 95.8 | 96 | 66.9 | 105 | 113 | 116 | 110 | 112 | 121 | 122 | 117 | 126 | 106 | 36.1 | 109 | 106 | 110 | 113 | 106 | 110 | 110 | 106 | 106 | 97.8 | 46.7 | -4.73 | – | -4.63
9 | CC(C)c1ccc2c(c1)c(SC(C)(C)C)c(CC(C)(C)C(=O)O)n2Cc1ccc(Cl)cc1 [MK-886] | 102 | 101 | 99.3 | 104 | 107 | 104 | 110 | 104 | 92.9 | 58.6 | 37.5 | 93.1 | 99.6 | 109 | 97.6 | 96.4 | 122 | 119 | 119 | 106 | 44.1 | 10.9 | 97 | 96.8 | 108 | 102 | 103 | 104 | 110 | 106 | 102 | 44.1 | 8.1 | -4.93 | -4.88 | -4.88
10 | C=CCn1c(=O)c2cnc(Nc3ccc(N4CCN(C)CC4)cc3)nc2n1-c1cccc(C(C)(C)O)n1 [MK-1775] | 107 | 99.2 | 97.6 | 94.2 | 81.8 | 51.1 | 8.79 | 6.85 | 6.45 | 6.67 | 7.48 | 1.81 | 9.67 | 24.9 | 33.9 | 47.1 | 17.9 | 4.83 | 3.23 | 3.77 | 4.82 | 5.88 | 105 | 112 | 114 | 113 | 99.8 | 56.3 | 14.8 | 4.46 | 4.11 | 5.02 | 5.71 | -6.78 | – | -6.73
11 | Cc1ccc(NC(=O)c2ccc(CN3CCN(C)CC3)cc2)cc1Nc1nc(-c2cccnc2)cs1 [Masitinib] | 105 | 101 | 107 | 102 | 106 | 106 | 106 | 97.2 | 93.3 | 85 | 14.3 | 117 | 116 | 116 | 119 | 119 | 100 | 114 | 113 | 81.4 | 52.2 | 21.8 | 113 | 111 | 105 | 106 | 109 | 108 | 106 | 104 | 69.5 | 93.2 | 11.3 | -4.63 | -4.93 | -4.68
12 | CO[C@@H]1[C@H](N(C)C(=O)c2ccccc2)C[C@H]2O[C@]1(C)n1c3ccccc3c3c4c(c5c6ccccc6n2c5c31)C(=O)NC4 [Midostaurin] | 100 | 98 | 96.9 | 95 | 94.1 | 89.6 | 65.8 | 64.9 | 45.4 | 38.2 | 34 | 99.7 | 110 | 113 | 109 | 105 | 82.1 | 52.4 | 43.9 | 37.2 | 36.7 | 33.1 | 103 | 106 | 105 | 101 | 103 | 72.3 | 66.6 | 53.8 | 48 | 38.2 | 30.3 | -5.98 | -6.58 | -6.33
13 | CC#C[C@]1(O)CC[C@H]2[C@@H]/3CCC/4=C/C(=O)CCC4=C3[C@H](C[C@]12C)C5=CC=C(C=C5)N(C)C [Mifepristone] | 107 | 104 | 100 | 104 | 104 | 101 | 98.9 | 97.8 | 93.6 | 84.6 | 11.7 | 98.9 | 105 | 105 | 104 | 101 | 104 | 97.8 | 107 | 99.6 | 82.5 | 3.79 | 6.37 | 107 | 102 | 103 | 102 | 104 | 90.7 | 103 | 100 | 95.1 | 4.18 | -4.63 | -4.63 | –
14 | Nc1ccccc1NC(=O)c1ccc(CNc2nccc(-c3cccnc3)n2)cc1 [Mocetinostat] | 97 | 103 | 98.7 | 85.6 | 83.9 | 56.4 | 29.7 | 12.9 | 12.7 | 12.5 | 19.1 | 112 | 118 | 112 | 99.4 | 100 | 70.6 | 9.98 | 5.27 | 5.08 | 4.74 | 3.68 | 104 | 96.7 | 94.3 | 92 | 79.3 | 38.4 | 6.67 | 4.3 | 4.05 | 3.84 | 2.56 | -6.73 | -6.63 | -6.88

Viability of KB3-1 and Nalm-6 cells after 48 h of drug alone (CellTiter-Glo), 11 doses over about 4.5 log units. % of DMSO wells, lower = more cell loss; AC50 from the fitted curve, lower = more potent. No active / inactive call. Nalm-6 was screened in two runs. AC50 is listed only for well-fitted inhibitory curves. KB3-1 is a HeLa-derived carcinoma line, Nalm-6 a B-cell precursor leukaemia line.
